PMC7368075
These are yes or no findings as the source states them, for the method shown. In cells and extracts the contact can be indirect. Some results given as binding are weak or reduced against the parent protein; the word gives no strength. Each block holds one substance with its values, some of them ahead of it.

Chains of the proteins cited; added tags and fusions are not shown. Lines headed by an entry give the natural chain unless they say otherwise; changes in a name come on top. Residues count along the entry.
UniProt P46108: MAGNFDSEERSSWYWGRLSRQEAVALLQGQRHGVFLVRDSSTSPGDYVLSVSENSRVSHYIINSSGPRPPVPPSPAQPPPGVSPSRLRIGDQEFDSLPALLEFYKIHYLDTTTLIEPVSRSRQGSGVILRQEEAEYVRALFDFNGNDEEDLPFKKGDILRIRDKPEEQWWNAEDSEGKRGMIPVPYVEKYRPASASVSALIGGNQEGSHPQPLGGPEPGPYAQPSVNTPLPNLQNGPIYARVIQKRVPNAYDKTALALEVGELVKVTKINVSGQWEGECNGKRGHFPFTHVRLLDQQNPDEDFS
UniProt P41240: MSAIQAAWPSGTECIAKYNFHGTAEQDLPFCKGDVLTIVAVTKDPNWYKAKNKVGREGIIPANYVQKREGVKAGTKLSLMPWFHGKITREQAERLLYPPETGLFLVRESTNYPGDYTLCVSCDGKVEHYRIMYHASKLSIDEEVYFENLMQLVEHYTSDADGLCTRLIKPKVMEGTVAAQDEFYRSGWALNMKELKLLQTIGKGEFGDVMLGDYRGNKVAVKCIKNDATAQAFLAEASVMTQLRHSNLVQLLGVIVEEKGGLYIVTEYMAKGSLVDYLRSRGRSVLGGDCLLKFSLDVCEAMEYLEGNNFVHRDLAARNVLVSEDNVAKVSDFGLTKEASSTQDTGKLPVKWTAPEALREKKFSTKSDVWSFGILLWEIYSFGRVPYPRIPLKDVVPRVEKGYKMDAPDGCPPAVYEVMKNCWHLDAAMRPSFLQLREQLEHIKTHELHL
UniProt P30530, residues 26-894: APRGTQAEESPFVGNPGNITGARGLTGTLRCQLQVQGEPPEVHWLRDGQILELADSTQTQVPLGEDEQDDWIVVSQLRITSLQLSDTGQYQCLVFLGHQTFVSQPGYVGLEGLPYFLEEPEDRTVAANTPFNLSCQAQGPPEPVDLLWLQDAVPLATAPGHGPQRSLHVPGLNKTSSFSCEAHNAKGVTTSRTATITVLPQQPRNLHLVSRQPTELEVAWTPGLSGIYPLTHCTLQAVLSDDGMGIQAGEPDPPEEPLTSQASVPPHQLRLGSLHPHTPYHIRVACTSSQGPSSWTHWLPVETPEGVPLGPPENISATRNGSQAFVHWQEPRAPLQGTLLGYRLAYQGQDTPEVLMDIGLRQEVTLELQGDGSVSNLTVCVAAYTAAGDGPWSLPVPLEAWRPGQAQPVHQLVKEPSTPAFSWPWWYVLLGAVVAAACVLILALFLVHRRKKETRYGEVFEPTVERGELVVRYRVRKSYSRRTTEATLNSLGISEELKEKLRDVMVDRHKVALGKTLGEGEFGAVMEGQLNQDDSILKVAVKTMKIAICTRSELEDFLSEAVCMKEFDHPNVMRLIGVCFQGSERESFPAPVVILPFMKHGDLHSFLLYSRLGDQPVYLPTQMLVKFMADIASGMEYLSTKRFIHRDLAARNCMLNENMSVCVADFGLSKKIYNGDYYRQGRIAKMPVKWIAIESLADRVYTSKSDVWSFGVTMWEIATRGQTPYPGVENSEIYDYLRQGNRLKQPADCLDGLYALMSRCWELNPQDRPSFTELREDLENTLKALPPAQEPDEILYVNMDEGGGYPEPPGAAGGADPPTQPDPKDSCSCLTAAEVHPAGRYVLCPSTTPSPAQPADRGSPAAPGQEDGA
UniProt Q9H792: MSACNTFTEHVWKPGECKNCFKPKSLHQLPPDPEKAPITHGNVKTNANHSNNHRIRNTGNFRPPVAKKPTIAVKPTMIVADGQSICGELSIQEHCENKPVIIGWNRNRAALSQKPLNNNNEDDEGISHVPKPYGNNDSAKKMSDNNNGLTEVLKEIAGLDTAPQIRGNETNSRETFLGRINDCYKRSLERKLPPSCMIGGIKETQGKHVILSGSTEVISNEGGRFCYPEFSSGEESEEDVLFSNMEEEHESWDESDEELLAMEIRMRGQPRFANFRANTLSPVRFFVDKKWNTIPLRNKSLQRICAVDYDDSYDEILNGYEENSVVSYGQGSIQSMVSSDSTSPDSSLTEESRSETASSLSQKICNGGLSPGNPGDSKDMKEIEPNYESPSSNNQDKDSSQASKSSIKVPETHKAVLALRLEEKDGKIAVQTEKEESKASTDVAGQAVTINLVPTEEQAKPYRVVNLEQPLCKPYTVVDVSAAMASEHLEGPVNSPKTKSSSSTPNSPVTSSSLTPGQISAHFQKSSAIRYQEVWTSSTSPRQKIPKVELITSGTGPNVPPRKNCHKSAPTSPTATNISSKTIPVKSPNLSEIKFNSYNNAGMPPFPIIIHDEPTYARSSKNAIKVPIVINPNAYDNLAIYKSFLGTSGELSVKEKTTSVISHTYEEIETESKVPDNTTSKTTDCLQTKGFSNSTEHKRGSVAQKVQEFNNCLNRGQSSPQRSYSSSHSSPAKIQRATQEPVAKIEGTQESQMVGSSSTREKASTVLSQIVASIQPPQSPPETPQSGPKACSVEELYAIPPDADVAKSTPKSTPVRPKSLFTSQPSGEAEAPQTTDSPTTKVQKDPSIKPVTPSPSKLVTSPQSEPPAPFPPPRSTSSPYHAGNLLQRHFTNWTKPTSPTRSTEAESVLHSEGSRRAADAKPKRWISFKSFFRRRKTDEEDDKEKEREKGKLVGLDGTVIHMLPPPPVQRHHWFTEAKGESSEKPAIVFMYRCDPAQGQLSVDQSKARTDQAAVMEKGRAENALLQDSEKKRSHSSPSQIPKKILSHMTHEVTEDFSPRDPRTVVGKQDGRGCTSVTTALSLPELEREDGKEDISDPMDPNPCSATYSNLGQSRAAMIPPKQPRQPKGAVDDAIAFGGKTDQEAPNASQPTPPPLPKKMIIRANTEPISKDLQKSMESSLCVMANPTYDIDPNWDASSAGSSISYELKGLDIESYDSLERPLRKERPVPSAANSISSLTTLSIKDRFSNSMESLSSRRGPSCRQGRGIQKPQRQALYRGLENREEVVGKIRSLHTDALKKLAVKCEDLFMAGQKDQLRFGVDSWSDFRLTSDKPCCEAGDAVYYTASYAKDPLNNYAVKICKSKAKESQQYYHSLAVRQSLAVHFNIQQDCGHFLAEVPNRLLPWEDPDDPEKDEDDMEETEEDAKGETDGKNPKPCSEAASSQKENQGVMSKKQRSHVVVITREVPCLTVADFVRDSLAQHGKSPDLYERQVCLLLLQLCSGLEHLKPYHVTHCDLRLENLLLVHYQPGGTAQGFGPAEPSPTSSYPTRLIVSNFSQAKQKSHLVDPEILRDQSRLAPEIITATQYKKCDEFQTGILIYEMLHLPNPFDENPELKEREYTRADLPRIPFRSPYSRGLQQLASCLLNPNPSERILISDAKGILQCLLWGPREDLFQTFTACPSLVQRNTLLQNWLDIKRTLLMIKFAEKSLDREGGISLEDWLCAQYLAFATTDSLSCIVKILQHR
UniProt P49023: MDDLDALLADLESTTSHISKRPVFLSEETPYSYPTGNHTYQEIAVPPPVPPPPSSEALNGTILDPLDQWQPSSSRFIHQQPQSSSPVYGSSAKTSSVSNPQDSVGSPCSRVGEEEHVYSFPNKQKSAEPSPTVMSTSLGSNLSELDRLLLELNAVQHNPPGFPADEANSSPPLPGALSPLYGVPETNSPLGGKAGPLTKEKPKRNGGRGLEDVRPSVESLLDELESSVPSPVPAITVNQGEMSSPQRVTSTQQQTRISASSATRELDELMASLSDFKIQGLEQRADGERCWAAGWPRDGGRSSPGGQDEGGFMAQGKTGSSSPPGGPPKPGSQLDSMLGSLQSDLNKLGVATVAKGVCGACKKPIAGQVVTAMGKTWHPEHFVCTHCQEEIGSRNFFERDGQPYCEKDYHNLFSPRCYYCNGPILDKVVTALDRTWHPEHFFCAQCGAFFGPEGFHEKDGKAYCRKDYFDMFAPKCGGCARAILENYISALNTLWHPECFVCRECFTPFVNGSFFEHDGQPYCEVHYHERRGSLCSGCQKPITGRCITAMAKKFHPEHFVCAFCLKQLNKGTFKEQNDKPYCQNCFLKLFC
UniProt Q14155: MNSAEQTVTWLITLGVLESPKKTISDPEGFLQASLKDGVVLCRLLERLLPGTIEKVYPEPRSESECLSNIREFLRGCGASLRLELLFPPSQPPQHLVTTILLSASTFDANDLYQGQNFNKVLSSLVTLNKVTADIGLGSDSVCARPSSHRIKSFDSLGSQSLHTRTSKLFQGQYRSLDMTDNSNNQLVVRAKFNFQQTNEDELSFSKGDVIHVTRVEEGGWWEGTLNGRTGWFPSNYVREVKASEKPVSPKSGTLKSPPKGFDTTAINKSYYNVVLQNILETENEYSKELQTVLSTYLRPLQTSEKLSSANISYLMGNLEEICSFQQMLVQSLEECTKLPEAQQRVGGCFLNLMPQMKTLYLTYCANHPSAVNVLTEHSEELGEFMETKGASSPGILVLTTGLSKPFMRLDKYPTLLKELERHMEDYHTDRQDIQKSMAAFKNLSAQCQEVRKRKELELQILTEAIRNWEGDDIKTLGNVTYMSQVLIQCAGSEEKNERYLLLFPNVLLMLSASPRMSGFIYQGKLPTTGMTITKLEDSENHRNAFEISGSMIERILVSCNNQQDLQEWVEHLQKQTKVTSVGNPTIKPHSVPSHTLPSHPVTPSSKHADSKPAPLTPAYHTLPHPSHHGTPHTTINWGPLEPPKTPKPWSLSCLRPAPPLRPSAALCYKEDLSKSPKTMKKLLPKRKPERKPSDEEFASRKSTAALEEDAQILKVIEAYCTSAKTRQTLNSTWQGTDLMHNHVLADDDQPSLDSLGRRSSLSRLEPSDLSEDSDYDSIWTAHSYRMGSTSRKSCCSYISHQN

Key:
[1] = molecular target: T1, NEDD9 (human (endogenous in MDA-MB-231)) (UniProt Q14511); assay: co-IP; endogenous proteins; lysates of MDA-MB-231 cells (control or 100 nM siAXL); anti-NEDD9 immunoprecipitation, CRKII by western blot; 1 mg lysate, 3 h, 4 °C
T1 sequence: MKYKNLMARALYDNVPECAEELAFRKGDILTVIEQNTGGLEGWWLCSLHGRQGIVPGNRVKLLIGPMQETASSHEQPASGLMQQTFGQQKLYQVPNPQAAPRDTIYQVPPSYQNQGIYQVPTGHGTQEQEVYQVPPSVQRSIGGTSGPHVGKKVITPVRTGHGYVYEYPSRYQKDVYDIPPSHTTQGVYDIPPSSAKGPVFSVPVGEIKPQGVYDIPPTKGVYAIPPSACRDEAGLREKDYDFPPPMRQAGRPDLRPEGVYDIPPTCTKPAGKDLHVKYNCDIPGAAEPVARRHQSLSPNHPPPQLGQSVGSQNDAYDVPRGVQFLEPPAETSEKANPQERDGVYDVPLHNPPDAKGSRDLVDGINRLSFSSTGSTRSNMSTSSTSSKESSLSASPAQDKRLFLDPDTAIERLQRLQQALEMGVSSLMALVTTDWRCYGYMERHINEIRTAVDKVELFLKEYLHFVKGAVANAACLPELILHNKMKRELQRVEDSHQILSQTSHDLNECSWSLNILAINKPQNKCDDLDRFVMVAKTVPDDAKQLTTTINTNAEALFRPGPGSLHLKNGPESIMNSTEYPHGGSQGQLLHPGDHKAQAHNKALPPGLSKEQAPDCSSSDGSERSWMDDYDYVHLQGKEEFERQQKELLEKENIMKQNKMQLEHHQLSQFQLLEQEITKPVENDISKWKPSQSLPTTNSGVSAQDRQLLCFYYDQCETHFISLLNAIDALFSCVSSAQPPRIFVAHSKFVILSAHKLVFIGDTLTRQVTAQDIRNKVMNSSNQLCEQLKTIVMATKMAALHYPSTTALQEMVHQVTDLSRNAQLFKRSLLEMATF

Myc-CRKII = Myc-CRKII (UniProt P46108); assay: co-IP; lysates of 293T cells expressing the indicated plasmids (with or without AXL WT or kinase dead in Fig. 6g); anti-Myc immunoprecipitation, western blot
GFP-CRKII [2] = molecular target: GFP-CRKII (UniProt P46108); assay: condition: only AXL kinase dead co-expressed instead of AXL WT; co-IP; lysates of 293T cells expressing the indicated plasmids with AXL kinase dead instead of AXL WT; anti-GFP immunoprecipitation, Myc-PEAK1 by western blot (Fig. 6d)
[3] = molecular target: CRKII as GST fusion (GST pulldown) (UniProt P46108); assay: pull-down; GST beads incubated with 1 mg of protein lysate for 2 h at 4 °C, western blot (Supplementary Fig. 5c); only the target purified
GFP-CRKII [4] = molecular target: GFP-CRKII (UniProt P46108); assay: co-IP; lysates of 293T cells expressing the indicated plasmids (Fig. 6b; Fig. 6d with AXL WT); anti-GFP immunoprecipitation, Myc-PEAK1 by western blot
[5] = molecular target: T2, NEDD9 (co-IP with PEAK1, construct not told) (UniProt Q14511); assay: co-IP; only mentioned, no figure; cells and constructs not told
T2 sequence: T1 sequence

[6] = molecular target: CSK (human (endogenous in MDA-MB-231)) (UniProt P41240); assay: co-IP; endogenous proteins; lysates of MDA-MB-231 cells treated or not with 1 µM R428; anti-CSK immunoprecipitation, PEAK1 by western blot
[7] = molecular target: AXL (human (endogenous in MDA-MB-231 and Hs578T)) (UniProt P30530); assay: proximity ligation; DuoLink in situ PLA on fixed, permeabilised MDA-MB-231 cells; endogenous proteins
Myc-PEAK1 (human) = Myc-PEAK1 (human) (UniProt Q9H792); assay: co-IP; co-IP of Supplementary Fig. 6f and 7l, m; cells, plasmids and precipitating antibody not told in the text shown

- binding [1]: binds
Substance: CRKII (from UniProt P46108-1 1-304)

- binding (Myc-CRKII): binds
Substance: GFP-PXN (from UniProt P49023 1-591)

- binding (GFP-CRKII [2]): no binding
- binding [3]: binds
- binding (GFP-CRKII [4]): binds
Substance: Myc-PEAK1 (from UniProt Q9H792 1-1746)

- binding [5]: no binding
Substance: PEAK1 (co-IP with NEDD9, construct not told) (from UniProt Q9H792 1-1746)

- binding [6]: binds
- binding [7]: binds
Substance: PEAK1 (from UniProt Q9H792 1-1746)

- binding (Myc-PEAK1 (human)): binds
Substance: βPIX (from UniProt Q14155 1-803)
